In the supplement of paper PMC4723716:
± gives the uncertainty stated by the source. Over roughly 9,900 compounds, “viability index relative to DMSO control” has its median near 1; the lowest 2% begin near 0.85. The list shows a part of the results.

Each compound was assayed on Plasmodium falciparum NF54 stage V gametocytes (assay: viability index relative to DMSO control (fraction); higher = less gametocyte killing). Conditions: 2.5 µM, library set: Broad Institute DOS, incubation time: 72 h.
In short: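 In 1,536-well plates, 10 µl of serum-free medium holding P. falciparum NF54 stage V gametocytes (0.75% gametocytemia, 1.25% hematocrit) received compound at 2.5 µM for 72 hr at 37°C in low oxygen. After one to two hours with 3 µl of 2.5 µM MitoTracker Red CMXRos containing 0.13% saponin, red particles of 20–70 µm2 were counted in a single field per well. Viability index is reported as the particle count over the plate mean of wells treated with solvent only.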

| Compound | viability index |
| --- | --- |
| COc1cccc(-c2ccc([C@@H]3[C@@H](CO)N4C(=O)CNC[C@H]34)cc2)c1 | 1.048 ± 0.0012 |
| CO[C@H]1CN(C)C(=O)c2cc(NS(=O)(=O)c3cccc(Cl)c3)ccc2OC[C@@H](C)NC[C@@H]1C | 1.06 ± 0.052 |
| COc1ccc([C@@H]2C/C=C\C[C@@H](c3ccc4c(c3)OCO4)NC(=O)CCC(=O)N2)c(OC)c1 | 0.981 ± 0.06 |
| CO[C@H](CN(C)Cc1ccc2c(c1)OCO2)[C@H](C)CN(C(=O)Nc1ccc(F)cc1)[C@@H](C)CO | 1.03 ± 0.0043 |
| N#C[C@@H]1[C@@H](c2ccccc2)[C@H](CO)N1S(=O)(=O)c1cccc(F)c1 | 1.04 ± 0.056 |
| C[C@@H]1CCCCO[C@@H](CN(C)S(=O)(=O)c2ccccc2)[C@H](C)CN([C@H](C)CO)C(=O)c2cc(NC(=O)Nc3ccc4c(c3)OCO4)ccc2O1 | 1.06 ± 0.06 |
| CO[C@H](CN(C)Cc1ccc(-c2ccccn2)cc1)[C@@H](C)CN(C(=O)Nc1ccc(F)cc1)[C@H](C)CO | 1.01 ± 0.061 |
| COCC(=O)N(C)C[C@H]1[C@H](c2ccccc2)[C@H](CO)N1C(=O)Cc1ccncc1 | 1.02 ± 0.04 |
| CO[C@H]1CC[C@@H]2CCN(C)C(=O)[C@@H](C)N(C)C(=O)c3cccc(C#N)c3OC[C@@H]1O2 | 1.02 ± 0.032 |
| C/C=C/c1cnc2c(c1)C(=O)N([C@H](C)CO)C[C@H](C)[C@H](CN(C)CC1CCOCC1)O2 | 1.01 ± 0.066 |
| Cc1noc(C)c1NC(=O)Nc1cccc2c1O[C@@H](CN(C)Cc1ccc(C(=O)Nc3ccccc3N)cc1)[C@H](C)CN([C@@H](C)CO)C2=O | 0.9218 ± 0.005 |
| CO[C@H]1CN(C)C(=O)c2cc(NC(C)=O)ccc2OC[C@@H](C)N(Cc2ccncc2)C[C@H]1C | 1.07 ± 0.051 |
| O=C(C[C@H]1CC[C@@H]2[C@H](COC[C@@H](O)CN2C(=O)Nc2ccc(F)cc2)O1)NC1CCC1 | 0.976 ± 0.016 |
| CCN1Cc2cc(C(=O)Nc3nccs3)nc(-c3cccc(C4=CCCC4)c3)c2[C@H]1CCO | 1.09 ± 0.019 |
| COc1ccccc1-c1ccccc1[C@@H]1[C@@H](C#N)N(C(=O)CN(C)C)[C@@H]1CO | 1.09 ± 0.053 |
| CC(C)[C@@H]1C(=O)N[C@@H](c2cccc(Cl)c2)C/C=C/C[C@H](C)Oc2ccccc2C(=O)N1C.CC(C)[C@@H]1C(=O)N[C@@H](c2cccc(Cl)c2)C/C=C\C[C@H](C)Oc2ccccc2C(=O)N1C | 1.02 ± 0.022 |
| C[C@@H]1CN([C@H](C)CO)C(=O)c2ccccc2-c2ccccc2CO[C@H]1CN(C)C(=O)Nc1ccnc(N2CCOCC2)c1 | 0.943 ± 0.095 |
| COc1cccc(NC(=O)N2[C@@H]3CNC[C@H]2[C@H]3c2ccc(-c3ccncc3)cc2)c1 | 1.08 ± 0.036 |
| O=C(c1cccnc1)N1CC[C@@H]2[C@H](CO)Nc3ccc(C4=CCCCC4)cc3[C@@H]21 | 1.09 ± 0.082 |
| CCC(=O)N1[C@H](CO)[C@H](c2ccccc2)C12CN(C(=O)c1ccc3c(c1)OCO3)C2 | 1.12 ± 0.048 |
| C/C=C/c1ccccc1[C@@H]1[C@H](C#N)N(c2nc(CC)cs2)[C@H]1CO | 1.12 ± 0.025 |
| COc1ccc2c3c([nH]c2c1)[C@H](CO)N(C[C@]31CCN(CC1)C(=O)c1ccccc1)C(=O)CC1CC1 | 1 ± 0.016 |
| N#C[C@@H]1[C@H](c2ccccc2-c2cccc(F)c2)[C@H](CO)N1C(=O)NC1CCCCC1 | 1.07 ± 0.079 |
| CO[C@@H]1CN(C)C(=O)c2ccc(NC(C)=O)cc2OC[C@@H](C)N(Cc2cccc(F)c2)C[C@@H]1C | 0.998 ± 0.057 |

| Compound | viability index |
| --- | --- |
| COCC#Cc1ccc([C@H]2[C@H](CO)N3C(=O)CN(C(=O)c4ccncc4)C[C@@H]23)cc1 | 1.06 ± 0.03 |
| O=C(NC1CCCC1)N1CCCCN2[C@H](CO)[C@H](c3ccc(-c4cccnc4)cc3)[C@@H]2C1 | 1.08 ± 0.086 |
| CCCNC(=O)N1[C@H](CO)[C@@H](c2ccccc2)C12CN(C(=O)C1CCCCC1)C2 | 1.1 ± 0.015 |
| CCCNC(=O)N1[C@@H]2Cn3c(cccc3=O)[C@H]1[C@@H](C(=O)N1CCC(Cc3ccccc3)CC1)[C@@H]2CO | 1.05 ± 0.064 |
| COc1ccc(-c2cn(CC[C@@H]3CC[C@H](NC(=O)c4cnccn4)[C@H](CO)O3)nn2)cc1 | 1.14 ± 0.091 |
| CO[C@@H]1CN(C)C(=O)c2cc(NC(C)=O)ccc2OC[C@@H](C)N(Cc2ccncc2)C[C@H]1C | 1.01 ± 0.075 |
| CCC(=O)Nc1ccc2c(c1)OC[C@@H](C)N(Cc1ccccc1)C[C@@H](C)[C@H](OC)CN(C)C2=O | 0.943 ± 0.18 |
| C[C@H]1CCCCO[C@H](CN(C)C(=O)CCC(F)(F)F)[C@@H](C)CN([C@@H](C)CO)C(=O)c2cc(NC(=O)C3CCCCC3)ccc2O1 | 1.12 ± 0.078 |
| C[C@@H]1CCCCO[C@@H](CN(C)Cc2ccc(C(F)(F)F)cc2)[C@H](C)CN([C@@H](C)CO)C(=O)c2cc(NC(=O)Nc3cccc4ccccc34)ccc2O1 | 0.949 ± 0.16 |
| C/C=C/c1ccccc1[C@H]1[C@@H](C#N)N(C(=O)CN2CCOCC2)[C@H]1CO | 1.14 ± 0.092 |
| CS(=O)(=O)N1[C@H](C#N)[C@@H](c2ccc(C#Cc3cccc(F)c3)cc2)[C@H]1CO | 1.131 ± 0.0054 |
| CCCNC(=O)N1[C@H](CO)[C@@H](c2ccccc2-c2ccccc2F)[C@@H]1C#N | 1.07 ± 0.13 |
| CO[C@@H]1CN(C)C(=O)c2ccc(NC(=O)Nc3ccccc3)cc2OC[C@H](C)N(C(=O)CC2CC2)C[C@H]1C | 1.07 ± 0.092 |
| O=C(NCC1CCCCC1)[C@H]1[C@H](CO)[C@H]2Cn3c(ccc(-c4ccc(F)cc4)c3=O)[C@@H]1N2 | 1.04 ± 0.015 |
| COc1ccccc1NC(=O)N1CCCCN2[C@@H](CO)[C@H](c3ccc(-c4cccc(C#N)c4)cc3)[C@@H]2C1 | 0.979 ± 0.022 |
| O=C(CN1CCOCC1)NC[C@H]1N[C@H](CO)[C@@H]1c1ccc(-c2ccccc2)cc1 | 0.983 ± 0.05 |
| CCCC(=O)N1C[C@]2(CN(C2)C(=O)C2CC2)c2c([C@H]1CO)n(C)c1cc(OC)ccc21 | 1.05 ± 0.035 |
| C[C@@H]1CN([C@@H](C)CO)C(=O)c2cc(NC(=O)Nc3ccc(C(F)(F)F)cc3)ccc2O[C@@H](C)CCCCO[C@H]1CN(C)CC1CCCCC1 | 1.04 ± 0.015 |
| C/C=C/c1ccc([C@H]2[C@@H](CO)N(C(=O)C3CC3)[C@H]2CNC(=O)NC(C)C)cc1 | 0.989 ± 0.018 |
| CCC(=O)N1C[C@]2(CCN(Cc3ccccc3Cl)CC2)c2c([nH]c3cc(OC)ccc23)[C@H]1CO | 1.01 ± 0.026 |
| O=C(c1cc2c(c(-c3cccc(Br)c3)n1)[C@H](CCO)NC2)N1CCCCC1 | 0.9968 ± 0.0045 |
| COc1ccc2c3c([nH]c2c1)[C@H](CO)N(C[C@]31CCN(C)CC1)C(=O)Cc1ccccc1 | 1.01 ± 0.1 |
| C[C@@H]1CCCCO[C@H](CN(C)C(=O)NC2CCCCC2)[C@@H](C)CN([C@H](C)CO)C(=O)c2cc(N(C)C)ccc2O1 | 1.14 ± 0.11 |
| O=C(C[C@H]1CC[C@H]2[C@@H](COC[C@@H](O)CN2S(=O)(=O)c2cccc(Cl)c2)O1)N1CCOCC1 | 0.968 ± 0.11 |

| Compound | viability index |
| --- | --- |
| COc1ccc2c3c([C@H](CO)N(C[C@]33CCN(CC3)C(=O)c3ccc4OCOc4c3)C(=O)Nc3ccc(F)cc3)n(C)c2c1 | 0.846 ± 0.055 |
| C[C@@H]1CN([C@@H](C)CO)C(=O)c2cc(-c3ccc(C#N)cc3)cnc2O[C@@H]1CN(C)Cc1cccnc1 | 1.05 ± 0.017 |
| CN(C)CC(=O)N[C@H]1CC[C@@H](CCNC(=O)C2CCC2)O[C@@H]1CO | 1.13 ± 0.083 |
| COc1ccc(C#Cc2cccc(-c3nc(C(=O)NCc4ccc5c(c4)OCO5)cc4c3[C@@H](CCO)N(S(=O)C(C)(C)C)C4)c2)cc1OC (some centres not stated) | 0.9061 ± 0.0023 |
| CN(C)C(=O)c1ccc(-c2ccc([C@@H]3[C@@H](CO)N(C(=O)C4CC4)[C@H]3C#N)cc2)cc1 | 1.12 ± 0.068 |
| CCCNC(=O)N1[C@H](C#N)[C@@H](c2ccc(C#Cc3cccc(F)c3)cc2)[C@@H]1CO | 0.981 ± 0.013 |
| CN(C)C(=O)C[C@@H]1C=C[C@H](NC(=O)c2ccc(F)cc2)[C@@H](CO)O1 | 1.11 ± 0.097 |
| CCS(=O)(=O)Nc1ccc2c(c1)C(=O)N(C)[C@H]1CC[C@@H](CC(=O)NCc3ccccc3F)O[C@@H]1CO2 | 1.09 ± 0.07 |
| C[C@@H]1CN([C@@H](C)CO)C(=O)Cc2cc(NC(=O)CCN3CCOCC3)ccc2O[C@H]1CN(C)Cc1ccc(C(=O)O)cc1 | 0.992 ± 0.027 |
| CO[C@@H]1CN(C)C(=O)c2cc(NS(C)(=O)=O)ccc2OC[C@@H](C)N(Cc2cncnc2)C[C@@H]1C | 1.05 ± 0.17 |
| O=C(c1ccc2c(c1)OCO2)N1C[C@H]2[C@@H](c3ccccc31)[C@H](CO)N2Cc1cccnc1 | 1.01 ± 0.03 |
| O=C(C[C@@H]1CC[C@H]2NC[C@@H](O)COC[C@@H]2O1)NCc1ccc2c(c1)OCO2 | 1.07 ± 0.015 |
| CCN1CC(=O)N2[C@H](CO)[C@H](c3ccc(Br)cc3)[C@@H]2C1 | 1.04 ± 0.097 |
| CCNC(=O)C[C@@H]1CC[C@H]2[C@@H](COC[C@@H](O)CN2C(=O)c2ccccn2)O1 | 1.02 ± 0.045 |
| C[C@@H]1CN([C@@H](C)CO)C(=O)Cc2cc(NS(=O)(=O)c3cn(C)cn3)ccc2O[C@H]1CN(C)Cc1ccc2c(c1)OCO2 | 1.06 ± 0.067 |
| COCC(=O)N1CC(=O)N2[C@H](CO)[C@@H](c3ccc(C#CC4CC4)cc3)[C@H]2C1 | 1.04 ± 0.024 |
| O=C1CCCCn2cc(nn2)COC[C@H](Cc2ccccc2)N1 | 0.986 ± 0.064 |
| CN(C)CC(=O)N[C@H]1CC[C@H](CCNC(=O)C2CCC2)O[C@@H]1CO | 1.11 ± 0.071 |
| CN1CCN(C(=O)C[C@H]2CC[C@H]3[C@@H](COC[C@@H](O)CN3Cc3cccc(-c4ccncc4)c3)O2)CC1 | 1.1 ± 0.026 |
| C/C=C/c1ccc([C@H]2[C@@H]3CN(S(=O)(=O)c4cn(C)cn4)C[C@H]2N3)cc1 | 1.08 ± 0.018 |
| C[C@H](CO)N1C[C@H](C)[C@H](CN(C)C(=O)NC2CCCCC2)OCc2ccccc2-c2ccccc2C1=O | 1.03 ± 0.03 |
| O=C(C[C@@H]1C=C[C@@H](NC(=O)Cc2ccccn2)[C@@H](CO)O1)NCCc1ccncc1 | 0.977 ± 0.047 |
| COc1ccc2c3c([nH]c2c1)[C@@H](CO)N(C[C@]31CCN(CC2CCCC2)CC1)C(=O)CN1CCOCC1 | 1.05 ± 0.028 |
| Cc1noc(C)c1S(=O)(=O)N(C)C[C@H]1OCc2ccccc2-c2c(n(C)c3ccccc23)C(=O)N([C@@H](C)CO)C[C@H]1C | 0.9973 ± 0.0039 |
